Screen size: about 45,000 compounds; about 65 (0.1%) were called active. The call rests on the fitted dose curve; in most records, active means well fitted activation curve with a large enough effect; inconclusive means small, poorly fitted or top-dose-only effect; inactive means no such curve, though single readings can be large or run the other way. The list shows a part of the results.
These compounds were tested against Galactocerebrosidase (Homo sapiens) (UniProt P54803) (assay: A Novel Cell-Based Assay to Identify Small Molecules for B -Galactocerebrosidase). Conditions: 145M-Twi-hGALC-G270D cells (Twitcher mouse brain line with human GALC G270D), HMU-beta-Gal fluorescence, 48 h; series mostly up to 57.5 µM; activation: at the top concentration.
Method in brief: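 Live 145M-Twi cells (Twitcher mouse brain-derived, GALC-null) stably expressing human GALC-G270D, with a wild-type GALC line, were compound-treated. Residual GALC activity was then read as fluorescence from 0.1 mM final HMU-β-gal at pH 5.2; higher signal means activation.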
Further: 0% is about no effect; nearly all actives have a fitted effect of over 65% in size.

UniProt P54803, sequence (P54803 whole entry, looked up): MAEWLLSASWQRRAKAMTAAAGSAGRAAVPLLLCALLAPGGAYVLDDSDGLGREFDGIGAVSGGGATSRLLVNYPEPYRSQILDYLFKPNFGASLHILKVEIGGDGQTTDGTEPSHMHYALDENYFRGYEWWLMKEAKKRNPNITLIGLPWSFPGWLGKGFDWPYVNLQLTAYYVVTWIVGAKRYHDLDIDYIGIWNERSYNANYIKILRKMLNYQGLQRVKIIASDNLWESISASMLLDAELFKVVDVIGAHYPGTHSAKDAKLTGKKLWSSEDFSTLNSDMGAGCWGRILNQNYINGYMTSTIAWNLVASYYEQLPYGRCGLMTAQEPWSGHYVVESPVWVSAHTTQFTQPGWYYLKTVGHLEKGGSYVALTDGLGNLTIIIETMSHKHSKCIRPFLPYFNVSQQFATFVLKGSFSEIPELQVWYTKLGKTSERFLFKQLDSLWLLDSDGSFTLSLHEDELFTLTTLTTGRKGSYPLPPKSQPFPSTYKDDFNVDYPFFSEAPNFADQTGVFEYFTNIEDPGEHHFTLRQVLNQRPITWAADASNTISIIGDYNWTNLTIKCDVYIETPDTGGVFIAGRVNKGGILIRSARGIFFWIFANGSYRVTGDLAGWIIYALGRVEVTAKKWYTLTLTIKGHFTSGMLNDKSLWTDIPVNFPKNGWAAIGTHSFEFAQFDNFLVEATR

activation, inactive:
Cc1c(C)n(Cc2ccc(F)cc2)c2ccc(C(=O)N3CCN(c4ccc(Cl)cc4)CC3)cc12 -12.2%
COc1ccc(/C=C/C(=O)Nc2ccc3nc(N4CCC(C)CC4)cc(C)c3c2)cc1OC -20.1%
CC1(C(=O)NC2CCCCC2)Cc2ccccc2C(=O)N1Cc1ccc(Cl)cc1 (stereo not drawn) -14.5%
COc1cccc(C2C(C(=O)Nc3ccc(Cl)cc3)=C(C)Nc3c(C(=O)Nc4ccccc4)cnn32)c1OC (stereo not drawn) -3.37%
Cc1cc(C)cc(NC(=O)c2sc3nc(-c4ccccc4)cn3c2C)c1 -7.17%
CC(=O)Nc1nonc1-c1nnc(SCc2ccc(F)cc2Cl)n1C -8.68%
CN1CC(=O)N/C1=N/C(=O)Nc1cccc(Cl)c1 -10.4%
CCOC(=O)c1cccc(NC(=O)CCS(=O)(=O)c2ccc(Br)s2)c1 -11.2%
Cc1ccc(NC(=O)CN2Cc3ccccc3C2=O)c(C)c1 -5.59%
CCC(C)NC(=O)Cn1c(=O)n(CCCC(=O)NCc2ccc(C)cc2)c(=O)c2ccccc21 (stereo not drawn) -8.58%
Cc1cn2c(=O)cc(COc3cc(C)c(Cl)c(C)c3)nc2s1 -10.3%
CC1CCCCN1S(=O)(=O)c1ccc(F)c(C(=O)Nc2ccccc2C(F)(F)F)c1 (stereo not drawn) 11.7%
CCOC(=O)C1CCN(c2cc3c(cc2NC(=O)c2ccc(OC)c(OC)c2)n(C)c(=O)n3C)CC1 -15.7%
COC(=O)c1ccccc1C(=O)c1ccc(OCCN2CCCCC2)cc1 -21.9%
Cc1cc(=O)n(Cc2cccc(Br)c2)c2c1c(C)nn2-c1ccccc1 -8.16%
Cc1cc(Cl)ccc1NS(=O)(=O)c1ccc2c(c1)CCN2S(C)(=O)=O -21.1%
COc1ccc(S(=O)(=O)N2CCN(Cc3nc4ccc(C)cc4o3)CC2)cc1OC -18.3%
Cc1cccc(CNC(=O)Cc2csc3ccccc23)c1 -16.8%
CCOc1cc2sc(N3CCC(C(=O)Nc4ccc(C(C)C)cc4)CC3)nc2cc1Br -23.5%
CCOc1ccc(NC(=O)CN(c2ccccc2OCC)S(=O)(=O)c2ccccc2)cc1 -11.8%
N#Cc1ccc(OC(=O)c2cc(-c3ccc4c(c3)OCCO4)on2)cc1 -17.6%
CCc1ccc(Sc2cc(C(=O)NCCCOC(C)C)c3ccccc3n2)cc1 -35.7%
CCOC(=O)c1oc2ccc(S(=O)(=O)n3nc(-c4cc(OC)cc(OC)c4)cc3N)cc2c1C -6.9%
CC(=O)Nc1ccc(-n2c(CCC(=O)O)ccc2-c2ccc(C)cc2)cc1 -3.35%
CCc1ccccc1NC(=O)C1COc2ccccc2C1 (stereo not drawn) -13%
Cn1cnc(S(=O)(=O)N2CCC(C(=O)N3CCN(c4ccc(Cl)cc4)CC3)CC2)c1 -6.22%
N#C/C(=C\c1ccccc1)C(=O)Nc1sc2c(c1C(N)=O)CCC2 -30.8%
COc1cccc(C2C(C(=O)Nc3ccccc3)=C(C)Nc3nnnn32)c1OC (stereo not drawn) -3.3%
N[C@H](C(=O)O)[C@@H](O)c1ccc(O)c(O)c1 -13.2%
Cc1ccc(NC(=O)CSc2nc3c(oc4ccccc43)c(=O)n2Cc2ccco2)cc1 -19.7%
CCCn1c(=O)c2sccc2n2c(CCCC(=O)N3CCN(c4cccc(C)c4C)CC3)nnc12 1.65%
Cc1cc2nc(-c3ccc(Br)cc3)cc(C(F)(F)F)n2n1 -18.7%
CCOC(=O)C1CCN(C(=O)Cn2nc(C)n3c(cc4cc(C)ccc43)c2=O)CC1 4.23%
COc1ccc(CCn2c(=O)c3cccnc3n(CC(=O)Nc3cccc(C)c3)c2=O)cc1OC 14.7%
COc1ccc(S(=O)(=O)NCc2ccc3c(c2)CCN3C(=O)c2ccc(C)cc2)cc1Cl -8.9%
CC(=O)N(Cc1cccnc1)c1nc2c(C)cccc2s1 -11.6%
Cn1cc(-c2cc3n(n2)CCC(=O)N3CCCC(=O)Nc2ccc(F)cc2F)c2ccccc21 1.53%
Cc1cc(C)cc(-n2ccnc2SCC(=O)Nc2ccc3c(c2)OCO3)c1 -27.4%
CCc1ccc(N2CCn3c2nc2c3c(=O)n(Cc3c(F)cccc3Cl)c(=O)n2C)cc1 -4.07%
Cc1nnc2c(N3CCN(c4ccccc4)CC3)nc3ccc(C(=O)c4ccccc4)cc3n12 -15.9%
Cc1ccc2nc(NS(=O)(=O)c3ccc(Cl)cc3)c(Nc3ccc(C(=O)O)cc3)nc2c1 -13.7%
CCc1ccc(-c2cn3c(n2)sc2cc(C(=O)NCC(C)c4ccccc4)ccc23)cc1 (stereo not drawn) -9.83%
Cc1nc2c(C(=O)NCCc3ccc(Cl)cc3)c[nH]n2c(=O)c1Cc1ccccc1F -11.7%
Cn1c(=O)c2sccc2n2c(CCC(=O)N3CCN(c4cccc(Cl)c4)CC3)nnc12 -3.58%
O=C(C1CC1)N1CCc2cc(Br)cc(S(=O)(=O)N3CCN(c4ccccc4)CC3)c21 -14.5%
OCc1cccnc1 -9.8%
CCc1ccc(NS(=O)(=O)c2ccc(C(=O)N(C)C)s2)cc1 -32%
CCOc1ccc(/C=C(\C#N)C(=O)Nc2sc3c(c2C(=O)OC)C(C(=O)OC)CC3)cc1OC (stereo not drawn) 2.13%
Cc1c(CNCCc2ccc(S(N)(=O)=O)cc2)c(C(=O)O)c(C)n1Cc1ccc(Cl)cc1 -10.1%
CCCCOC(=O)c1ccc(Nc2nc3ccccc3c3nnc(C)n23)cc1 5.19%
CCCCC(=O)Nc1nnc(S(=O)(=O)N(CC)c2cc(C)cc(C)c2)s1 -19.3%
CCc1ccccc1NC(=O)Cn1nnc(C(=O)NCc2cccs2)c1N -11%
CN(C(=O)CSc1nc2ccccc2n1CC(=O)N(C)c1ccc(F)cc1)c1ccccc1 -14.7%
CCN(c1ccccc1)S(=O)(=O)c1ccc(F)c(C(=O)Nc2ccc(C)cc2)c1 -2.47%
CCOc1ccc(Nc2oc(-c3ccc(COc4ccccc4C)o3)nc2C#N)cc1 -12.5%
Cc1nc(-c2cccc(F)c2)sc1CCNC(=O)c1ccc(F)c(F)c1 -12.5%
O=C(CSc1nccn1Cc1ccc(F)cc1)Nc1ccc2c(c1)OCO2 -14.9%
Cc1ccc(CNC(=O)CN2C(=O)C3(SCC(=O)N3c3cc(C)cc(C)c3)c3ccccc32)cc1 (stereo not drawn) -13.8%
COc1ccc(CNCCSc2nnnn2-c2ccccc2)c(OC)c1 -14.9%
Cc1ccc(-n2nc(C(=O)Nc3ccc(C)c(F)c3)c(=O)n(C)c2=O)cc1 -9.63%
O=C(NC1CCCC1)c1ccc2c(=O)n(Cc3ccccc3)c(SCc3ccccc3)nc2c1 -14.1%
COc1ccc(-c2nc3ccc(C)cn3c2Nc2ccc3c(c2)OCO3)cc1 -10.7%
Cc1ccc(CNC(=O)CCCCn2c(=O)c3ccccc3n(Cc3ccc(C)cc3)c2=O)cc1 -8.86%
CCCCSCCCNC(=O)c1cn(C)c2ccc(S(=O)(=O)N3CCCC3)cc2c1=O -5.6%
Cc1cc(C)cc(OCC(=O)N(Cc2ccc(Cl)cc2)CC2CCCO2)c1 (stereo not drawn) -8.18%
CCOC(=O)c1c(S(=O)(=O)N2CCC(C(=O)NCc3ccccc3OC)CC2)c(C)n(C)c1C -15.9%
CC1CCCCN1S(=O)(=O)c1cc2c3c(c1)CC(=O)N3CCC2 (stereo not drawn) -5.2%
Cc1ccc(Nc2nc(Nc3ccc(C)c(C)c3)nc(N3CCOCC3)n2)cc1C -1.09%
COc1ccc(N2CCN(CCCNC(=O)c3cc(Nc4ccccc4OC)nc4ccccc34)CC2)cc1 3.87%
Cc1ccc(-n2nnnc2CNC(=O)c2ccccc2)cc1C -11%
COc1cc(C(=O)N2CCN(c3ccc(Nc4ccccc4)nn3)CC2)cc(OC)c1OC -17.4%
COc1cccc(C(=O)Nc2ccccc2-c2nc3ccccc3s2)c1 -10.4%
CCc1cccc(C)c1NC(=O)CN1C(=O)C2(SCC(=O)N2c2cc(C)cc(C)c2)c2ccccc21 (stereo not drawn) -20.4%
CN(C)S(=O)(=O)c1ccc2c(c1)N(CC(=O)N1CCN(c3ccccc3F)CC1)CCS2 -15.4%
CC(C)Cc1ccc(CC(=O)O)cc1 4.68%
Cc1ccc(-c2nc(CS(=O)(=O)CC(=O)NCc3ccccc3Cl)c(C)o2)cc1 -15.9%
Cc1cccc(CNC(=O)CN2C(=O)CCCc3ccccc32)c1 -7.29%
O=C(Cn1c(=O)n(Cc2ccc(C(=O)NCc3ccccc3Cl)cc2)c(=O)c2ccccc21)Nc1ccc(F)c(Cl)c1 -8.01%
COc1cc(C(=S)N2CCOCC2)cc(OC)c1OC -12.2%
COc1ccc(N2CC(NC(=O)COc3ccc4ccccc4c3)CC2=O)cc1 (stereo not drawn) 12.2%
O=C(Cn1c(-c2cccs2)cc2ccccc21)NCc1ccccc1Br -6.22%
Cc1cccc(NC(=O)c2sc(-n3nc(C)c(CCC(C)C)c3C)nc2C)c1C -10.9%
COc1cc(OC)cc(C(=O)Nc2cccc(-c3cn4cccnc4n3)c2)c1 -11.2%
O=S(=O)(c1ccc2[nH]c3c(c2c1)CCCCC3)N1CCN(c2cccc(Cl)c2)CC1 -18.9%
Cc1ccccc1CNC(=O)c1sc2ncnc(N(C)C3CCCCC3)c2c1C -8.28%
NC(N)=NCCC[C@H](N)C(=O)O -25.1% [at 5.77 µM]
Cc1oc(-c2cccc(Cl)c2)nc1CN1CCCC(C(=O)NCc2ccc(Cl)cc2)C1 (stereo not drawn) -19.5%
CC1=C(C(=O)Nc2cccc(C(F)(F)F)c2)C2(CCCCC2)OC1=O -17.6%
O=c1c2cc3c(nc2ncn1Cc1ccc(Cl)cc1)CCCC3 -25.6%
CCOC(=O)C1CCN(c2c(C(=O)c3ccc(C)cc3)cnc3ccc(F)cc23)CC1 -13.4%
COc1ccc(NC(=O)CN2C(=O)c3ccccc3Sc3ccc(C(=O)N4CCOCC4)cc32)c(OC)c1 -3.47%
Cc1nc2ncnn2c(C)c1CCC(=O)N1CCN(c2cccc(Cl)c2)CC1 -13.6%
CCOC(=O)c1cccc(NS(=O)(=O)c2cc3[nH]c(=O)c(=O)[nH]c3cc2C)c1 -7.48%
CC1CCC2(CC1)N=C(c1ccccc1)C(=O)N2CC(=O)Nc1ccc(F)c(Cl)c1 (stereo not drawn) -1.67%
COc1cccc(CNC(=O)COCc2cc(-c3ccc4c(c3)OCO4)on2)c1 -16.1%
COc1cccc(CNC(=O)c2ccc3c(c2)nc2n3CCCCC2)c1OC -13.2%
CCc1ccc(NC(=O)c2nnn(Cc3cccc(C(F)(F)F)c3)c2N)cc1 -21%
COc1cc(C(=O)OCc2cc(=O)n3nc(C(C)C)sc3n2)cc(OC)c1OC -9.33%
